We go through 56 compounds from PubChem BioAssay AID463173 (ICCB-Longwood Screening Facility, Harvard Medical School, 2010).

The whole screen tested about 52,000 compounds, of which about 1,700 (3.3%) were called active. Cut-off read from the data, not from the text of the source: active = survival mostly below about 52% (no sharp cut-off); inactive = mostly above about 56%. This is one part of the list.

The test system of the assay is Wild type. Kind of assay: growth inhibition of S. aureus wild type versus tarO mutant, primary screen, teichoic acid synthesis inhibitors, RN4220, OD600 (AID 463173). To be noted: S. aureus RN4220 wild type/DeltatarO growth, OD600, 18 h, stronger effect = lower value, screened at 18.75 µg/mL (by protocol).
Take `O=C(CN1C(=O)c2cccnc2Oc2ccc(Cl)cc21)NCCc1ccccc1`: the survival is inactive: 66%.
For the compound `Cc1cc(NC(=O)CSc2ncc(C(=O)Nc3ccc(Cl)cc3)c(=O)n2C)no1`, the survival is inactive: 78%.
Turning to `CCCCNc1ccc(-c2nc(-c3ccco3)no2)cc1[N+](=O)[O-]`, the survival was inactive: 86%.
For `CCOC(=O)c1c(-c2ccc(C)cc2)csc1NC(=O)c1cc(-c2ccc(C)c(F)c2)on1`, the survival is inactive: 83%.
Consider `CCC(CC)C(=O)Nc1ccc2nc(SCC(=O)N3CCc4ccccc43)sc2c1`, for which the survival was inactive: 108%.
Turning to `Cc1ccc(C(=O)N2CC(=O)NC(=O)C2)cc1`, the survival is inactive: 119%.
Turning to `Cc1ccc(CNC(=O)CN(c2cccc(C)c2C)S(=O)(=O)c2ccccc2)cc1`, the survival is inactive: 90%.
The result for `Cc1cccc(N2CCN(S(=O)(=O)c3cc(Cl)ccc3Cl)CC2)c1C` reads inactive: 102%; that for `CC(=O)c1cccc(NC(=O)C2CCCN(C(=O)c3cnn(-c4ccccc4)c3-n3cccc3)C2)c1` (stereo unspecified), inactive: 123%.
Take `O=C(CSc1nnnn1C1CCCC1)c1ccc2c(c1)OCCO2`: the survival is inactive: 102%.
The result for `Cn1c2ccccc2c2cnn(CC(=O)N3CCN(c4cccc(C(F)(F)F)c4)CC3)c(=O)c21` reads inactive: 85%; that for `CCOc1ccc(C(=O)Nc2cccc(NC(=O)c3ccc(C(C)(C)C)cc3)c2)cc1Br`, inactive: 93%; that for `O=C(c1ccc2c(c1)N(Cc1ccc(F)cc1)C(=O)c1ccccc1S2(=O)=O)N1CCN(Cc2ccccc2)CC1`, inactive: 96%.
For `COc1ccc(-c2nc(SCC(=O)Nc3ccc4c(c3)OCCO4)c(-c3ccc(F)cc3)[nH]2)cc1OC` the value was inactive: 62%; for `COc1ccc(CC(=O)NCc2ccc3c(c2)CCN3C(C)=O)cc1`, inactive: 72%; for `CC(C)CC(=O)n1nc(-c2cccnc2)nc1NCc1ccc(F)cc1`, inactive: 108%.
Turning to `CCc1cccc2c(C#N)cn(CC(=O)N(CC)CC)c12`, the survival is inactive: 102%.
For `Cc1ccc(NC(=O)CCCn2c(=O)c3cccn3c3ccccc32)cc1C` the value was inactive: 77%; for `COCCCNC(=O)c1ccc(-n2c(-c3ccccc3)cc3c2CCCC3)cc1`, inactive: 83%; for `COc1cccc(-c2nnc(SCC(=O)N3CCC(C)CC3)o2)c1`, inactive: 63%.
Consider `O=C(OCc1cc(=O)n2nc(C3CCCCC3)sc2n1)c1ccccc1Cl`, for which the survival was inactive: 59%.
Regarding `Cc1cc(C)n(-c2nc3ccccc3nc2Nc2ccc(Cl)c(C(=O)OC(C)C)c2)n1`, the survival was inactive: 84%.
For `CCN(CC)C(=O)CSc1nc2ccccc2cc1C` the value was inactive: 96%.
For `COc1ccc(OCC(=O)OCc2cc(=O)n3nc(-c4cccs4)sc3n2)cc1`, the survival was inactive: 87%.
For `Cc1ccc(CNC(=O)CCc2c(C)nc3nc(C)nn3c2C)cc1` the value was inactive: 120%; for `Cc1ccc(OCC(=O)Nc2cccc(OCc3cc(=O)n4cccc(C)c4n3)c2)cc1C`, inactive: 124%.
The result for `Cc1ccc(CCNC(=O)CCCn2c(=O)c3ccccc3n(Cc3ccccc3C#N)c2=O)cc1` reads inactive: 98%; that for `CCn1cc2c(n1)-c1c(oc(C(=O)Nc3cccc(C)c3C)c1C)CC2`, inactive: 114%.
For `Cc1ccc(Cl)cc1NC(=O)Cn1c(=O)n(Cc2ccccc2)c(=O)c2oc3ccccc3c21` the value was inactive: 83%; for `Cc1cc(C)cc(NC(=O)CSc2oc(-c3ccccc3)nc2S(=O)(=O)c2ccccc2)c1`, inactive: 140%.
Take `CCc1ccc(O)c(C(=O)c2cnc3cc(-c4ccc(C)cc4)nn3c2)c1`: the survival is inactive: 66%.
In the case of `N#Cc1c(C(F)(F)F)cc(-c2cccs2)nc1SCC(=O)Nc1ccccc1F`, the survival was inactive: 136%.
The result for `CCn1cc(S(=O)(=O)c2ccccc2)c(=O)c2cc(F)c(N3CCCC3)cc21` reads inactive: 153%; that for `Cc1cc(C)cc(NS(=O)(=O)c2ccc3[nH]cc(C(=O)NC4CCCCC4)c(=O)c3c2)c1`, inactive: 27%; that for `CCN1CC=C2C(C#N)=C(N)C(C#N)(C#N)C(C)C2C1` (stereo unspecified), inactive: 99%.
In the case of `CCOc1ccc(-c2cc(C(=O)NCc3ccccc3Cl)c3ccccc3n2)cc1`, the survival was inactive: 70%.
The result for `COc1cc(OC)c(OC)cc1/C=C/c1nc2cc3ccccc3cc2c(=O)n1-c1ccc(F)c(Cl)c1` reads inactive: 85%; that for `CCc1c(C)nc(SCc2nc(-c3ccccc3)no2)[nH]c1=O`, inactive: 118%.
The result for `O=C(c1cc(-c2ccccc2O)on1)N1CCCCC1` reads inactive: 68%; that for `O=S(=O)(c1ccc2c(c1)Cc1ccccc1-2)N1CCOCC1`, inactive: 114%; that for `CCN(CC)C(=O)c1sc2c(c1C)c(=O)n(CCc1ccccc1)c(=O)n2Cc1ccc(F)cc1Cl`, inactive: 70%.
The result for `CNS(=O)(=O)c1ccccc1C(=O)N/N=C/c1ccc(OC)c(OC)c1` reads inactive: 102%.
As to `O=C(c1ccc2c(c1)N(Cc1ccccc1F)C(=O)c1ccccc1S2(=O)=O)N1CCN(c2ccccc2F)CC1`, the survival was inactive: 92%.
On to `COc1ccc2cc(-c3nc(Cl)c4c5c(sc4n3)CC(C)CC5)c(=O)oc2c1` (stereo unspecified), for which the survival was inactive: 78%.
For `O=C(Cn1c(=O)n(-c2cccc(Cl)c2)c(=O)c2sc3ccccc3c21)NC1CCCCC1` the value was inactive: 136%; for `Cc1ccc(OCC(=O)Nc2cccc(-c3nc4ccccc4o3)c2C)cc1C`, inactive: 79%; for `O=C(c1cc2sccc2n1Cc1ccccc1)N1CCN(Cc2ccc3c(c2)OCO3)CC1`, inactive: 102%.
On to `Cc1ccc(/C=C2\SC(=O)NC2=S)o1`, for which the survival is inactive: 56%.
For the compound `COc1ccccc1NC(=O)c1c(NC(=O)COc2ccccc2)sc2c1CCCCC2`, the survival was inactive: 71%.
Consider `CNC(=O)C1CCC(Cn2c(=O)c3sccc3n(CC(=O)NCc3ccc(OC)cc3)c2=O)CC1` (stereo unspecified), for which the survival was inactive: 131%.
For `O=C(c1ccccc1)c1ccc2nc(-c3ccco3)c(-c3ccco3)nc2c1` the value was inactive: 51%.
Take `O=C(CSCc1ccc(F)cc1)N1CCN(c2ccc(Cl)cc2)CC1`: the survival was inactive: 69%.
For `Clc1ccc(CN2CCC(CNc3ncnc4onc(-c5ccc(Cl)cc5)c34)CC2)cc1` the value was inactive: 31%; for `COc1ccc(C2=C/C(=C/c3ccco3)C(=O)O2)cc1`, inactive: 117%; for `COc1ccc(-c2nc(CSCC(=O)NCCc3ccccc3)c(C)o2)cc1`, inactive: 95%.
For `CCc1ccc(-n2c(SCc3ccccc3Cl)nc3[nH]ncc3c2=O)cc1` the value was inactive: 135%.
